From the BET-seq Pho4 binding data (Le et al. 2018)
The list shows a part of the results. These are noisy estimates, calculated here from bound and input reads.

Target: T1, Pho4 (S. cerevisiae) (UniProt P07270)
T1 sequence: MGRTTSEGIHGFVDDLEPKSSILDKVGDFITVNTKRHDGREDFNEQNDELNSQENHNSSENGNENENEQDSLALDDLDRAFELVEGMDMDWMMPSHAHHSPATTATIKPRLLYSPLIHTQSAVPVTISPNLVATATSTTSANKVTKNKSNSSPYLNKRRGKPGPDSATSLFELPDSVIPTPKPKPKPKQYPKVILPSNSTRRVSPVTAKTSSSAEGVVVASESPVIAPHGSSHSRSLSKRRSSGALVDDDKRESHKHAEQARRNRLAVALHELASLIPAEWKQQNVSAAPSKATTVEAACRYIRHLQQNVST
Assay: relative binding free energy (BET-seq); higher = weaker binding
Conditions: reference: library average

Sequence | relative binding free energy [kcal/mol]
GGCCTCACGTGTTTGT | 0.18
TGTAGCACGTGAGAAG | 0.19
AAGTTCACGTGTTGGA | 0.3
GATAGCACGTGGATAG | 0.05
AGGGTCACGTGATGTG | 0.27
GGTATCACGTGGAAAG | 0.28
ATCGGCACGTGGGTTA | -0.22
TATGGCACGTGGGGTC | -0.29
GCGGGCACGTGGAGGG | -0.16
GGGTGCACGTGTGGAC | 0.18
TAGAGCACGTGTGCAT | -0.12
TGATGCACGTGTAAAT | 0.24
CTGCACACGTGGAGTG | 0.08
AGTGTCACGTGTGCTG | 0.06
GGGGTCACGTGATGTG | 0.36
AGGCTCACGTGTCGGG | 0.34
TGATGCACGTGAGATT | 0.19
TGGATCACGTGGTAGA | 0.16
GGGGTCACGTGAATCG | 0.28
TGGCGCACGTGCGGTG | -0.07
ACGATCACGTGTGGTT | 0.18
ATTCGCACGTGGGTCA | -0.09
ATTAGCACGTGGTCGG | -0.06

Sequence | relative binding free energy [kcal/mol]
AGATACACGTGTCGGG | -0.04
GGGATCACGTGAGTTT | 0.43
TAGGACACGTGGGGTT | -0.01
TTCGGCACGTGAGGTG | 0.16
CTATGCACGTGGGGTA | -0.26
GGTGGCACGTGGTCAG | -0.13
TGGTCCACGTGGGCGT | -0.19
CGTCTCACGTGAGGGT | 0.24
TAAAGCACGTGGGGAG | -0.17
ATTTGCACGTGGGTGA | -0.13
AGGTTCACGTGTGGGC | 0.25
AGGTGCACGTGTGCAG | -0.1
ATATTCACGTGAGTTG | 0.37
AAGGACACGTGGTGTT | -0.1
TAAATCACGTGTCGTT | 0.21
TTCGCCACGTGTTAGG | 0.02
TATGACACGTGCGTGA | -0.06
GAAGTCACGTGGAGTG | 0.22
ACAGGCACGTGGGAGT | -0.25
GGATCCACGTGGGATT | 0.09
ATGAGCACGTGCGGTC | -0.09
GAGAGCACGTGTGGCA | -0.06
AAGTTCACGTGGGGAA | 0.12

Sequence | relative binding free energy [kcal/mol]
CGGTACACGTGTGAGT | 0.22
AGATTCACGTGGGGTC | 0.28
TAGACCACGTGGTTGT | -0.16
TTTAGCACGTGAGGAT | 0.19
GCTTGCACGTGGCAGG | -0.2
TGAGTCACGTGGGCCG | -0.03
TGATTCACGTGATTTA | 0.28
GTTACCACGTGGTGAG | -0.04
ATTGACACGTGTCGGA | -0.06
AGTTCCACGTGGTATG | 0.03
AGAATCACGTGGTGTA | 0.09
CGAGGCACGTGTGGTG | -0.06
TGGTTCACGTGTAGAA | 0.31
GTTGACACGTGAAGGG | 0.34
TGAAGCACGTGTGATA | 0.05
ACGTTCACGTGTTGTG | 0.22
GTACGCACGTGTGTGA | -0.06
GTTTGCACGTGTTCCG | 0.18
AGTAGCACGTGGTCTA | -0.06
GGGTGCACGTGATAAA | 0.12
AATGTCACGTGGGCTT | 0.04
GGGGTCACGTGTTTGG | 0.24
TATATCACGTGATTGG | 0.23

Sequence | relative binding free energy [kcal/mol]
TTAATCACGTGTAGCT | 0.13
AGTGTCACGTGGTATC | 0.08
AACTTCACGTGGGTTA | 0.12
TATCGCACGTGGGATG | -0.12
TGGTGCACGTGAATAG | 0.19
CTTTACACGTGAATGG | 0.36
ATTGTCACGTGTATCT | 0.19
AGCTTCACGTGTAGTG | 0.22
GGACGCACGTGAAGGG | 0.14
CGTTGCACGTGAAGGA | 0.42
TTGGCCACGTGAAGCG | 0.34
AGTTCCACGTGGGTGT | -0.04
AGGCACACGTGGGCTG | -0.1
CGTGGCACGTGGAGCG | -0.17
GTAAGCACGTGGGTCG | -0.19
GGTTACACGTGATGGC | 0.28
ATGATCACGTGGGTGG | -0.06
AGACGCACGTGGTTTA | -0.01
TGGTACACGTGGGACT | 0.1
GTGTACACGTGTGTTA | 0.13
TTAATCACGTGTATGA | 0.19
GGCGTCACGTGAGGGA | 0.22
AATTTCACGTGGTAGA | 0.1

Sequence | relative binding free energy [kcal/mol]
TTCATCACGTGGGTTG | -0.05
TTATCCACGTGAGGTG | 0.35
TAGAACACGTGTCGTT | 0.17
TATGGCACGTGGTGCA | -0.28
TTCAGCACGTGTTATG | -0.01
GTGTGCACGTGGGGAG | -0.1
TGGAGCACGTGTAAAG | 0.06
TTGGGCACGTGGCTGG | -0.18
TTCGGCACGTGTAATA | 0.22
AATAACACGTGGGGGA | -0.24
TTTATCACGTGGTCGA | 0.07
TCAGGCACGTGTGTAT | -0.11
TTGAACACGTGCGGGC | 0.29
ATTTCCACGTGATAGG | 0.23
ATATGCACGTGGATTT | 0.07
CTAGGCACGTGCGGTT | -0.17
GGGTTCACGTGTAGGT | 0.3
ATTGACACGTGAGTGG | 0.16
ATGTTCACGTGTTAGC | 0.23
ACGGTCACGTGGGGCG | -0.27
CGGTACACGTGGAGTG | -0.02
AATAGCACGTGTTGGT | -0.11
ATTGTCACGTGAGTAC | 0.36
